Results as given in paper PMC4336329 (PLoS ONE, 2015).
Hit rate of the full screen: of about 310,000 compounds, about 14,000 (4.5%) showed an effect of 50% or more. Effects have a minus sign here. The list shows a part of the results.

Target: human ether-à-go-go-related gene (hERG) potassium channel (human, UniProt Q12809)
Assay: primary screen, population patch clamp on CHO cells stably expressing hERG
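Note: peak tail current of the secondary pulse compared with the same well before compound.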

Chain of human ether-à-go-go-related gene (hERG) potassium channel (Q12809 whole entry, looked up): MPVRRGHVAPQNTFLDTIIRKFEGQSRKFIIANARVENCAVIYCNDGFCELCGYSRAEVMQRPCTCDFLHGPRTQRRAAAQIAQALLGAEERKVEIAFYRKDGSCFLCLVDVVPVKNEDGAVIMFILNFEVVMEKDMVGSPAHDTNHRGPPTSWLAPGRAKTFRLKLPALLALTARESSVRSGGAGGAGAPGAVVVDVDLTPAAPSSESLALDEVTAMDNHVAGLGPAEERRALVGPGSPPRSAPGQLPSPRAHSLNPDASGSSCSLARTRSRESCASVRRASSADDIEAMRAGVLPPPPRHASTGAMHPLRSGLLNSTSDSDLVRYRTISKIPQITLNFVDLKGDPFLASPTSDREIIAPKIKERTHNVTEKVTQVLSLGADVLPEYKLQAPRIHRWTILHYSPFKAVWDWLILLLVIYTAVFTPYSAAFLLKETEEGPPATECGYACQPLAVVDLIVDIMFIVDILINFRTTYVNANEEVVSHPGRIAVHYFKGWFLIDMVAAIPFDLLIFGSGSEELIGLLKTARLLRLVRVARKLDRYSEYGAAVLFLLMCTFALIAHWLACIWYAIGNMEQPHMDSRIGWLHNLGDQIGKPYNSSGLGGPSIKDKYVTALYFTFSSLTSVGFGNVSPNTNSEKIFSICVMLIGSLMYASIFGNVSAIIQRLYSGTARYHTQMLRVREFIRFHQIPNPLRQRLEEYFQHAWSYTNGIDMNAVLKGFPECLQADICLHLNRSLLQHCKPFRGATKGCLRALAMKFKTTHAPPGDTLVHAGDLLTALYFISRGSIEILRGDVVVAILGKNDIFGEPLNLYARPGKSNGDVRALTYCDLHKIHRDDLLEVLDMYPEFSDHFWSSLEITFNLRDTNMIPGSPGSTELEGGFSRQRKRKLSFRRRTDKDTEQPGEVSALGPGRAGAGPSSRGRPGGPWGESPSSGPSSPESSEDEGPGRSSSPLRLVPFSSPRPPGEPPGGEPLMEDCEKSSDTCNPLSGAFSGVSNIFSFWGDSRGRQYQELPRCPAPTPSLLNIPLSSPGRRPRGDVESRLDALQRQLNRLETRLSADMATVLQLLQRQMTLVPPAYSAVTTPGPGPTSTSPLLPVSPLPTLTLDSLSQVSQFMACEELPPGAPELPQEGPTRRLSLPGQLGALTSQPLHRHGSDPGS

Compound | hERG current change (%, negative = inhibition) at 10uM
COc1ccc(/C=C2\SC(=S)N(CC(=O)N(C)C3CCS(=O)(=O)C3)C2=O)cc1 (stereo not drawn) | -0.695%
CS(=O)(=O)N1CCN(c2ccc(NC(=S)NC(=O)c3cccs3)cc2)CC1 | 15.5%
NC(=S)Nc1nccc(-c2cccs2)n1 | -3.38%
Br.O=C1c2ccccc2C(=O)N1c1cccc(-c2csc(Nc3ccc4c(c3)OCO4)n2)c1 | -6.69%
CCCCn1nc(C(=O)Nc2cccc(C(=O)NC3CC3)c2)c2ccccc2c1=O | -82.6%
Cc1cccc(NC(=O)CSCC(=O)N(C)CC(=O)Nc2cccc(F)c2)c1 | -3.01%
COc1cccc(-c2nc3ccc(N4CCN(C)CC4)cc3[nH]2)c1 | -20.5%
CC(C)CNC(=O)C1CC(=O)OC12CCCCC2 (stereo not drawn) | 10.7%
O=C(Nc1nccs1)c1ccc(-c2ccc(Cl)cc2)o1 | 6.53%
Cl.O=C(CCN1CCCC1)Nc1ccc(Br)cc1 | -15.7%
CC(C)Cn1c(N)c(C(=O)COC(=O)CCc2nc3ccccc3c(=O)[nH]2)c(=O)n(C)c1=O | -36%
Cc1ccccc1CNC(=O)Nc1ccc(Cl)cc1 | 20.3%
Cc1ccc(C(=O)NC(Cc2c[nH]c3ccccc23)C(=O)O)o1 (stereo not drawn) | 10.1%
COc1ccc(C2(c3ccc(OC)cc3)NC(=O)N(CC(=O)N3CCOCC3)C2=O)cc1 | 1.06%
Cc1ccc(OCC(=O)NNC(=S)NC(=O)C2CC2)c(C)c1 | 23.2%
CC(C)Cn1c(N)c(C(=O)COC(=O)c2c(F)cccc2F)c(=O)n(C)c1=O | -16.7%
CCOc1cccc(CN2CCCC(C(=O)Nc3ccc(-c4ccn[nH]4)cc3)C2)c1O (stereo not drawn) | -29.5%
CN(C)S(=O)(=O)n1cc(/C=C(\NC(=O)c2ccccc2)C(=O)N2CCCC2)c2ccccc21 | -4.67%
COc1ccc(S(=O)(=O)NCC2CCC(C(=O)NCc3cccnc3)CC2)cc1 (stereo not drawn) | 1.47%
CCN(CC)CCN(C(=O)c1ccc(CN2CCCCC2)o1)C(C(=O)NC1CCCCC1)c1ccc(F)cc1 (stereo not drawn) | -13.4%
O=C(NNC(=S)Nc1ccc(Cl)cc1Cl)c1ccc(N2CCOCC2)c([N+](=O)[O-])c1 | 8.86%
C=CCN(C(=O)CNC(=O)c1ccco1)C(C(=O)NC1CCCCC1)c1ccc(F)cc1 (stereo not drawn) | 11.9%

Compound | hERG current change (%, negative = inhibition) at 10uM
COc1ccc(OC)c(NC(=O)c2oc3ccccc3c2NC(=O)C2CC2)c1 | 10.4%
Cn1cc(CN2CCCC(C(=O)c3cc(F)ccc3F)C2)c2ccccc21 (stereo not drawn) | -31.1%
CCN(c1ccccc1C(=O)O)S(=O)(=O)c1cccc2nsnc12 | 24.3%
OC(COc1ccc(C2C=CCC2)cc1)CN1CCCCC1 (stereo not drawn) | -42.6%
NC(=O)C1CC(=O)N(c2ccc(OCc3ccc(F)cc3)cc2)C1 (stereo not drawn) | 10.4%
CCN(CC)CCCn1c2c(c(SCC(=O)Nc3nccs3)nc1=O)CCC2 | -32%
O=C(O)c1ccc(SCc2cnc(Cl)s2)cc1 | -70%
CCCNc1nc(-c2cc(C(=O)Nc3ccccc3)on2)cc(C(C)C)n1 | 11.9%
O=C(C(=O)N1CCc2ccccc2C1)c1cn(CC(=O)N2CCCC2)c2ccccc12 | -7.92%
CCn1c(O)c(C=Nc2ccccc2)sc1=O | 13.9%
COc1ccc(Nc2ncnc3sc(-c4ccccc4)cc23)c(OC)c1 | 3.86%
Cn1c(=O)c2ncn(CC(=O)NC3CCCCCC3)c2n(C)c1=O | 9.86%
CC(C)N(Cc1ccccc1)C(=O)CN1C(=O)NC2(CCCc3ccccc32)C1=O (stereo not drawn) | 3.79%
CCOC(=O)c1c(NC(=O)CSc2nc3ccc(C)cc3[nH]2)sc2c1CC(C)(C)NC2(C)C | -44.3%
Cc1cc(O)cc(=O)n1Cc1ccco1 | 5.29%
CCOC(=O)COc1ncn(-c2ccccc2)n1 | 2.4%
O=C(COC(=O)c1cccc(F)c1)NC(=O)NC1CCCC1 | 5.55%
CCCCn1c(/N=C/c2ccc(N(C)C)cc2)nc2ccccc21 | -11.3%
CC(C)(C)n1ncc2c(=O)n(Cc3ccc(Cl)cc3)cnc21 | 7.16%
C[C@@H](NC(=O)c1nc[nH]c1C(=O)N1CCc2ccccc2C1)c1ccccc1 | -2.24%
COc1ccc(CN=C2NC(=O)CC(C(=O)Nc3ccc(F)cc3)S2)cc1 (stereo not drawn) | -29%
O=C(NCC1CCCO1)c1cccc(S(=O)(=O)Nc2ccc(SC(F)F)cc2)c1 (stereo not drawn) | -5.67%

Compound | hERG current change (%, negative = inhibition) at 10uM
CSCCC(NS(=O)(=O)c1ccccc1)C(=O)OC(C)C(=O)Nc1ccc(Cl)cn1 (stereo not drawn) | -58.8%
CCCn1nc(C(=O)Nc2nnc(CC)s2)c2ccccc2c1=O | -0.743%
O=C(CC1C(=O)NCCN1Cc1ccccc1)NCCN1CCCCC1=O (stereo not drawn) | 19.1%
COCCNC(=O)CN(C(=O)Cn1nnc2ccccc21)c1cccc(C)c1C | 11.9%
Cc1ccccc1NC(=O)c1cc(S(=O)(=O)c2ccccc2)ccc1Cl | 9.51%
Cc1cc2cc(CNC(=O)c3cccs3)ccc2[nH]1 | 7.46%
CCC(=O)Nc1cccc(C2=NOC3(C2)C[C@@H](C(N)=O)N(C(=O)CC(c2ccccc2)c2ccccc2)C3)c1 (stereo partly drawn) | -3.63%
Cc1cc(Cl)ccc1OCC(=O)OCC(=O)Nc1cccnc1Cl | -0.711%
CCC(C)[C@H](NC(=O)N1CC(=O)Nc2ccccc21)C(=O)N1CCC(C(=O)O)CC1 (stereo partly drawn) | 11.3%
Cc1c(C(=O)NC(c2ccccn2)C(F)(F)F)oc2c(F)cccc12 (stereo not drawn) | 20%
O=C(NNC(=S)Nc1ccccc1Cl)c1ccccc1 | 5.93%
COc1ccc(NC(=O)c2ccc3c(c2)OCO3)cc1[N+](=O)[O-] | 25.5%
CCC(C)C(=O)Nc1cccc(SC)c1 (stereo not drawn) | 16%
CN(C)c1ccc(CNn2cnnc2SCc2ccccc2F)cc1 | -17.6%
O=C(NC1CCCCC1)C1CC(=O)N(Cc2ccccc2)C1 (stereo not drawn) | 16.7%
COc1ccc(C(=O)Nc2ccc(NC(=O)c3ccccc3F)cn2)cc1 | 13.9%
Cc1ccc(C(=O)c2cc([N+](=O)[O-])ccc2N2CCCCC2)cc1 | -5.08%
COc1ccc(-c2noc(CN(C(=O)c3c(-c4ccccc4Cl)noc3C)C(C)C)n2)cc1 | 14.8%
CC1(C)Cc2c(cnn2-c2ccccc2)-c2c1c1ccccc1n2CC(O)CCl (stereo not drawn) | 9.96%
Cc1cc(C(=O)Nc2ccccc2C(F)(F)F)no1 | 17.8%
CC(=O)NC(CCS(C)(=O)=O)C(=O)N1CCc2ccccc21 (stereo not drawn) | -0.0527%
CCN(CC(=O)NCc1ccc(F)cc1)C(=O)c1ccc(Cl)cc1 | -23.7%

Compound | hERG current change (%, negative = inhibition) at 10uM
O=C(c1nc2ccccn2c1CNCC1OCCc2ccccc21)N1CCOCC1 (stereo not drawn) | -0.852%
O=C(O)c1ccc2oc(=O)c(S(=O)(=O)c3ccc(F)cc3)cc2c1 | 21.7%
CCCCOc1ccc(C2C(C(=O)c3cccs3)=C(O)C(=O)N2CCN2CCOCC2)cc1 (stereo not drawn) | 21.8%
Cc1c(NC(=O)CSc2ccc3c(c2)OCCO3)c(=O)n(-c2ccccc2)n1C | -10.3%
COc1cc(/C=C(\C#N)C(=O)NCC2CCCO2)ccc1OCC(N)=O (stereo not drawn) | 28.7%
O=C(NNC(=O)c1ccc2c(=O)n3c(nc2c1)CCC3)c1ccc(Cl)cc1 | -13.3%
N#CCCN1CCN(S(=O)(=O)c2ccc(S(=O)(=O)NCC3CCCO3)cc2)CC1 (stereo not drawn) | 3.48%
Cc1cccc2cc(C3CC(c4cccs4)=NN3S(C)(=O)=O)c(Cl)nc12 (stereo not drawn) | -0.435%
O=C(Cn1cc(C(=O)c2cccs2)c2ccccc21)NCc1ccc2c(c1)OCO2 | -1.56%
O=S(=O)(c1ccccc1)N1CCN=C1SCc1cccnc1 | -12.1%
COc1cc2c(cc1OC)CN(C(=O)Nc1ccccc1Cl)CC2 | 9.9%
O=C(O)COCC(=O)Nc1ccccc1-c1ccccc1 | 12.7%
CC1=C(C(=O)O)N2C(=O)[C@@H](NC(=O)CCCC(=O)O)[C@H]2SC1 | 1.03%
Cc1cc(Cl)ccc1Nc1ncccc1C(N)=O | -0.7%
CCN1CCN(Cc2ccc(OCc3ccccc3)cc2)CC1 | -31.2%
Cc1ccc(S(=O)(=O)N2CCOCC2)cc1NC(=O)COC(=O)c1cc(=O)[nH]c2ccccc12 | 10.2%
Cc1cc(C)c(-c2csc(NC(=O)C3=COCCO3)n2)cc1C | 2.49%
O=C(c1ccccc1F)N1CCN(CC2CC3C=CC2C3)CC1 (stereo not drawn) | -16.4%
CN(C)CCNc1oc(COc2ccc(-c3ccccc3)cc2)nc1C#N | -28%
Cc1ccccc1NC(=O)NCCCN1CCN(C)CC1 | 28.1%
COC(=O)c1ccc(C(=O)N2CCCC(CNC(=O)c3ccc(F)cc3)C2)cc1 (stereo not drawn) | -5.82%
